According to the supplement of paper PMC10320760:
This is a noisy data set.

B1: Ydj1; a variant is named by its letters at X, in order (parent)
chain: MVKETKFYDILGVPVTATDVEIKKAYRKCALKYHPDKNPSEEAAEKFKEASAAYEILSDPEKRDIYDQFGEDGLSGAGGAGGFPGGGFGFGDDIFSQFFGAGGAQRPRGPQRGKDIKHEISASLEELYKGRTAKLALNKQILCKECEGRGGKKGAVKKCTSCNGQGIKFVTRQMGPMIQRFQTECDVCHGTGDIIDPKDRCKSCNGKKVENERKILEVHVEPGMKDGQRIVFKGEADQAPDVIPGDVVFIVSERPHKSFKRDGDDLVYEAEIDLLTAIAGGEFALEHVSGDWLKVGIVPGEVIAPGMRKVIEGKGMPIPKYGGYGNLIIKFTIKFPENHFTSEENLKKLEEILPPRIVPAIPKKATVDECVLADFDPAKYNRTRASRGGANYDSDEEEQGGEGVQCXXX

Variants of: B1
Test: enrichment factor, frequency at 37 °C / frequency at 25 °C (thermotolerance selection) (ratio); higher = more growth at 37 °C, higher likelihood of farnesylation
Details: with Saccharomyces cerevisiae ydj1Δ (yWS304); selective temperature 37 °C; reference temperature 25 °C
TVD showed an enrichment factor of 2.17. VVD gave an enrichment factor of 1.94. For CVD, the enrichment factor was 1.83. WVD gave an enrichment factor of 2.89. In the case of YVD, the enrichment factor is reported as 2.32. DVE gave an enrichment factor of 1.06. EVE was tested, and the enrichment factor was 1.36. FVE was tested, and the enrichment factor was 2.58. Work on GVE yielded an enrichment factor of 1.79. HVE gave an enrichment factor of 2.79. For IVE, the enrichment factor was 2.74. For AVE, the enrichment factor was 2.19. In the case of KVE, the enrichment factor is reported as 1.54. LVE was tested, and the enrichment factor was 1.82. For MVE, the enrichment factor was 1.64. NVE was tested, and the enrichment factor was 1.78. PVE showed an enrichment factor of 1.49. In the case of QVE, the enrichment factor is reported as 1.53. RVE was tested, and the enrichment factor was 1.64. Variant SVE has an enrichment factor of 1.43. For TVE, the enrichment factor was 2.7. For VVE, the enrichment factor was 1.05. CVE showed an enrichment factor of 1.8. WVE showed an enrichment factor of 3.7. YVE gave an enrichment factor of 2.39. In the case of DVF, the enrichment factor is reported as 2.01. Variant EVF has an enrichment factor of 2.62. FVF was tested, and the enrichment factor was 1.32. For GVF, the enrichment factor was 1.08. HVF gave an enrichment factor of 4.05. With IVF the enrichment factor was 2.08. Work on AVF yielded an enrichment factor of 0.737. Work on KVF yielded an enrichment factor of 2.78. Variant LVF has an enrichment factor of 1.54. With MVF the enrichment factor was 0.643. NVF gave an enrichment factor of 2.32. Work on PVF yielded an enrichment factor of 0.792. For QVF, the enrichment factor was 2.17. In the case of RVF, the enrichment factor is reported as 1.43. Variant SVF has an enrichment factor of 1.06. TVF gave an enrichment factor of 1.12. With VVF the enrichment factor was 1.21. CVF gave an enrichment factor of 0.865. Work on WVF yielded an enrichment factor of 0.772. Variant YVF has an enrichment factor of 1.54. DVG gave an enrichment factor of 1.71. Variant EVG has an enrichment factor of 3.12. FVG gave an enrichment factor of 0.463. For GVG, the enrichment factor was 3.98. HVG showed an enrichment factor of 2.42. IVG was tested, and the enrichment factor was 2. AVG gave an enrichment factor of 3.72. In the case of KVG, the enrichment factor is reported as 2.32. Variant LVG has an enrichment factor of 2.65. For MVG, the enrichment factor was 1.21. NVG showed an enrichment factor of 3.19. PVG showed an enrichment factor of 1.29. QVG was tested, and the enrichment factor was 1.8. Work on RVG yielded an enrichment factor of 2.25. SVG was tested, and the enrichment factor was 2.84. For TVG, the enrichment factor was 1.5. VVG showed an enrichment factor of 1.54. Variant CVG has an enrichment factor of 0.746. For WVG, the enrichment factor was 3.09. Work on YVG yielded an enrichment factor of 1.3. DVH was tested, and the enrichment factor was 1.93. With EVH the enrichment factor was 3.79. FVH gave an enrichment factor of 1.49. With GVH the enrichment factor was 2.4. Variant HVH has an enrichment factor of 1.69. Variant IVH has an enrichment factor of 1.39. In the case of AVH, the enrichment factor is reported as 3.25. KVH was tested, and the enrichment factor was 3.84. Variant LVH has an enrichment factor of 2.43. MVH was tested, and the enrichment factor was 2.7. Work on NVH yielded an enrichment factor of 2.98. PVH was tested, and the enrichment factor was 1.51. QVH showed an enrichment factor of 3.92. For RVH, the enrichment factor was 2.8. SVH was tested, and the enrichment factor was 2.72. In the case of TVH, the enrichment factor is reported as 2.53. Work on VVH yielded an enrichment factor of 1.12. CVH was tested, and the enrichment factor was 1.92. Variant WVH has an enrichment factor of 2.12. YVH showed an enrichment factor of 1.99. DVI was tested, and the enrichment factor was 1.41. In the case of EVI, the enrichment factor is reported as 1.76. FVI gave an enrichment factor of 2.9. GVI gave an enrichment factor of 1.11. Work on HVI yielded an enrichment factor of 1.53. Work on IVI yielded an enrichment factor of 1.19. Variant AVI has an enrichment factor of 0.586. In the case of KVI, the enrichment factor is reported as 1.16. LVI was tested, and the enrichment factor was 1.4. In the case of MVI, the enrichment factor is reported as 1.59. Work on NVI yielded an enrichment factor of 2.67. Work on PVI yielded an enrichment factor of 0.919. Variant QVI has an enrichment factor of 2.12. RVI gave an enrichment factor of 0.772. SVI showed an enrichment factor of 1. For TVI, the enrichment factor was 0.632. In the case of VVI, the enrichment factor is reported as 0.772. For CVI, the enrichment factor was 0.772. Variant WVI has an enrichment factor of 2.55. YVI was tested, and the enrichment factor was 2.9. For DVK, the enrichment factor was 0.244. EVK showed an enrichment factor of 1.4. FVK showed an enrichment factor of 1.83. GVK gave an enrichment factor of 1.32. HVK gave an enrichment factor of 2.75. IVK gave an enrichment factor of 1.53. Work on AVK yielded an enrichment factor of 1.38. KVK showed an enrichment factor of 1.43. Work on LVK yielded an enrichment factor of 1.56. Variant MVK has an enrichment factor of 1.43. For NVK, the enrichment factor was 2.37. With PVK the enrichment factor was 1.16. Work on QVK yielded an enrichment factor of 1.56. In the case of RVK, the enrichment factor is reported as 1.07. For SVK, the enrichment factor was 1.97. With TVK the enrichment factor was 2.25. VVK showed an enrichment factor of 1.11. CVK gave an enrichment factor of 1.61. Work on WVK yielded an enrichment factor of 1.04. For YVK, the enrichment factor was 2.73. DVL was tested, and the enrichment factor was 1.76. EVL showed an enrichment factor of 1.57. For FVL, the enrichment factor was 0.948. For GVL, the enrichment factor was 1.57. HVL was tested, and the enrichment factor was 1.97. IVL was tested, and the enrichment factor was 1.67. AVL showed an enrichment factor of 1.59. Variant KVL has an enrichment factor of 2.08. In the case of LVL, the enrichment factor is reported as 1.35. In the case of MVL, the enrichment factor is reported as 1.85. NVL was tested, and the enrichment factor was 1.41. Work on PVL yielded an enrichment factor of 0.964. Work on QVL yielded an enrichment factor of 1.76. Work on RVL yielded an enrichment factor of 1.05. With SVL the enrichment factor was 0.818. With TVL the enrichment factor was 0.602. Work on VVL yielded an enrichment factor of 0.853. For CVL, the enrichment factor was 0.997. WVL was tested, and the enrichment factor was 2.05. With YVL the enrichment factor was 1.54. DVM showed an enrichment factor of 2.02. In the case of EVM, the enrichment factor is reported as 1.67. Work on FVM yielded an enrichment factor of 1.16. In the case of GVM, the enrichment factor is reported as 0.842. HVM gave an enrichment factor of 1.22. In the case of IVM, the enrichment factor is reported as 0.591. AVM was tested, and the enrichment factor was 0.719. With KVM the enrichment factor was 1.7. Variant LVM has an enrichment factor of 0.933. Variant MVM has an enrichment factor of 0.93. Work on NVM yielded an enrichment factor of 0.922. For PVM, the enrichment factor was 0.984. With QVM the enrichment factor was 2.39. With RVM the enrichment factor was 0.524. SVM gave an enrichment factor of 0.856. Work on TVM yielded an enrichment factor of 0.794. VVM gave an enrichment factor of 0.72. Variant CVM has an enrichment factor of 1.13. In the case of WVM, the enrichment factor is reported as 1.93. Work on YVM yielded an enrichment factor of 0.724. With DVN the enrichment factor was 2.23. Variant EVN has an enrichment factor of 2.32.
